# Experimental data as given in the supplement of paper PMC4604168 (melanoma cell lines).
# Some of the results follow. Most values come without repeats; read them as rough.
# Columns and labels:
# Assay in all cases: cell count relative to DMSO control; melanoma cells; higher = more viable cells
# Conditions in all cases: library dose: low library concentration; 72 h
# MZ2-MEL = test system: MZ2-MEL
# MeWo = test system: MeWo
# RPMI7951 = test system: RPMI7951
# RVH-421 = test system: RVH-421
# SkMel28 = test system: SkMel28
# SkMel30 = test system: SkMel30
# SkMel5 = test system: SkMel5
# UACC257 = test system: UACC257
# UACC62 = test system: UACC62
# 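Also: cell number obtained by counting DAPI-stained nuclei in high-throughput microscope images with image analysis software, screen run in 1,536-well plates.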
SMILES,cell count (MZ2-MEL) [%],cell count (MeWo) [%],cell count (RPMI7951) [%],cell count (RVH-421) [%],cell count (SkMel28) [%],cell count (SkMel30) [%],cell count (SkMel5) [%],cell count (UACC257) [%],cell count (UACC62) [%]
"O=C(Nc1cccc(Cl)c1)Nc1ncc(CCNc2ncnc3ccsc23)s1 + O=C(O)C(=O)Nc1sc2c(c1C(=O)O)CCNC2 [TCS401] (first compound 0.0008 µM, partner dose 1.66667 µM)",103,94.9,126,85.9,82.9,117,93.9,99.8,114
"C[C@@H]1CCN(C(=O)CC#N)C[C@@H]1N(C)c1ncnc2[nH]ccc12 + CCc1ccc(CCOc2ccc(CC3SC(=O)NC3=O)cc2)nc1 [pioglitazone] (first compound 1 µM, partner dose 2 µM)",104,105,111,112,88.2,104,82.5,92.2,92
"O=C(O)c1ccc(-c2c[nH]c3ncc(-c4ccccc4)cc23)cc1C1CCCC1 + O=C1NC(=O)/C(=C/c2ccc(-c3ccc(F)cc3O)o2)S1 [AS252424] (first compound 0.16 µM, partner dose 1 µM)",95.3,94,108,124,95.4,90.6,93.1,88.5,98.3
"O=C(Nc1cccc(Cl)c1)Nc1ncc(CCNc2ncnc3ccsc23)s1 + O=c1cc(-c2cccc3c2Sc2ccccc2S3)oc(N2CCOCC2)c1 [KU55933] (first compound 0.0008 µM, partner dose 1 µM)",101,98.9,88.7,92.8,93.1,93.1,81.4,95.5,107
"Cn1cncc1[C@@](N)(c1ccc(Cl)cc1)c1ccc2c(c1)c(-c1cccc(Cl)c1)cc(=O)n2C [tipifarnib] + CCN(CC)CCCCNc1ncc2cc(-c3cc(OC)cc(OC)c3)c(NC(=O)NC(C)(C)C)nc2n1 [PD173074] (first compound 0.01 µM, partner dose 0.1 µM)",101,99.4,95.4,75.7,85.1,82.8,126,55.2,87.7
"COc1cc(Nc2ncc(F)c(Nc3ccc4c(n3)NC(=O)C(C)(C)O4)n2)cc(OC)c1OC [Tamatinib] + CC(C)CCN1c2nc(Nc3cc(F)c(O)c(F)c3)ncc2N(C)C(=O)C1C [BID1870] (first compound 0.4 µM, partner dose 0.2 µM)",95.8,91.7,89.7,117,88.3,85.4,89.5,71,70.4
"O=C(O)c1ccc(-c2c[nH]c3ncc(-c4ccccc4)cc23)cc1C1CCCC1 + CCCCCCCCCCCC1=C(O)C(=O)C=C(O)C1=O [Embelin] (first compound 0.16 µM, partner dose 1.2 µM)",102,105,98.9,105,112,115,105,99.6,105
"O=C(Nc1cccc(Cl)c1)Nc1ncc(CCNc2ncnc3ccsc23)s1 + CCc1ccc(CCOc2ccc(CC3SC(=O)NC3=O)cc2)nc1 [pioglitazone] (first compound 0.0008 µM, partner dose 2 µM)",99.7,89,73.9,87.3,91.4,115,114,91.4,92.3
"Cn1cncc1[C@@](N)(c1ccc(Cl)cc1)c1ccc2c(c1)c(-c1cccc(Cl)c1)cc(=O)n2C [tipifarnib] + COc1ccc(-c2ccc3c(N4CCOCC4)nc(N4C[C@@H](C)O[C@@H](C)C4)nc3n2)cc1CO [KU0063794] (first compound 0.01 µM, partner dose 0.02 µM)",95.8,88.6,90,84.2,89.8,97.9,123,53.8,66.3
"O=C(Nc1cccc(Cl)c1)Nc1ncc(CCNc2ncnc3ccsc23)s1 + COc1cc(N2CCC(N3CCN(C)CC3)CC2)ccc1Nc1ncc(Cl)c(Nc2ccccc2S(=O)(=O)C(C)C)n1 [NVP-TAE684] (first compound 0.0008 µM, partner dose 0.08 µM)",101,84.1,78.4,106,101,108,79.5,92.8,95.6
"O=C(Nc1cccc(Cl)c1)Nc1ncc(CCNc2ncnc3ccsc23)s1 + O=C(O)c1ccc(-c2c[nH]c3ncc(-c4ccccc4)cc23)cc1C1CCCC1 [GSK650394] (first compound 0.0008 µM, partner dose 0.16 µM)",,98.8,90,126,85.2,100,86.3,124,92.8
"CC1(C)NC(=O)N(c2ccc([N+](=O)[O-])c(C(F)(F)F)c2)C1=O [nilutamide] + O=S(=O)(c1ccccc1)N(CC(F)(F)F)c1ccc(C(O)(C(F)(F)F)C(F)(F)F)cc1 [T0901317] (first compound 1 µM, partner dose 1.4 µM)",94.3,99.1,118,90.9,92.2,116,88.5,75.4,89.1
"C[C@@H]1CCN(C(=O)CC#N)C[C@@H]1N(C)c1ncnc2[nH]ccc12 + COc1ccc(COc2ccc(Cc3cnc(N)nc3N)cc2OC)cc1 [GW2580] (first compound 1 µM, partner dose 1 µM)",102,100,84.5,107,108,112,98.7,101,111
"CC1(C)NC(=O)N(c2ccc([N+](=O)[O-])c(C(F)(F)F)c2)C1=O [nilutamide] + O=C(Nc1ccccc1)c1cc([N+](=O)[O-])ccc1Cl [GW9662] (first compound 1 µM, partner dose 2 µM)",93.5,98.7,106,88.1,75.4,123,93.9,91.6,86.8
"CC1(C)NC(=O)N(c2ccc([N+](=O)[O-])c(C(F)(F)F)c2)C1=O [nilutamide] + COC(=O)c1sccc1S(=O)(=O)Nc1ccc(Nc2ccccc2)cc1OC [GSK0660] (first compound 1 µM, partner dose 1 µM)",99.6,109,128,112,92,101,105,77.4,114
"O=c1[nH]nc(Sc2ncc([N+](=O)[O-])s2)n1-c1ccc2c(c1)OCCO2 + CC(=O)O[C@@]12CO[C@@H]1C[C@H](O)[C@@]1(C)C(=O)[C@H](O)C3=C(C)[C@@H](OC(=O)[C@H](O)[C@@H](NC(=O)OC(C)(C)C)c4ccccc4)C[C@@](O)([C@@H](OC(=O)c4ccccc4)[C@H]21)C3(C)C [Docetaxel] (first compound 0.2 µM, partner dose 0.0001 µM)",49.9,53.7,54.1,60.8,69,46.5,,,40.5
"CC1(C)NC(=O)N(c2ccc([N+](=O)[O-])c(C(F)(F)F)c2)C1=O [nilutamide] + Oc1nc(-c2ccc(C(F)(F)F)cc2)nc2c1CSCC2 [XAV939] (first compound 1 µM, partner dose 2 µM)",95.9,92.1,88.3,86.6,88.3,153,78.8,109,108
"O=c1[nH]nc(Sc2ncc([N+](=O)[O-])s2)n1-c1ccc2c(c1)OCCO2 + CO[C@H]1C[C@@H]2CC[C@@H](C)[C@@](O)(O2)C(=O)C(=O)N2CCCC[C@H]2C(=O)O[C@H]([C@H](C)C[C@@H]2CC[C@@H](OCCO)[C@H](OC)C2)CC(=O)[C@H](C)/C=C(\C)[C@@H](O)[C@@H](OC)C(=O)[C@H](C)C[C@H](C)/C=C/C=C/C=C/1C [everolimus] (first compound 0.2 µM, partner dose 0.02 µM)",78.9,65.4,60.8,70.1,48.3,57.8,,,68.6
"O=C(Nc1cccc(Cl)c1)Nc1ncc(CCNc2ncnc3ccsc23)s1 + COc1ccc(-c2ccc3c(N4CCOCC4)nc(N4C[C@@H](C)O[C@@H](C)C4)nc3n2)cc1CO [KU0063794] (first compound 0.0008 µM, partner dose 0.02 µM)",96.1,100,97.8,96.4,84.7,83.9,96.8,96.7,88.5
"O=c1[nH]nc(Sc2ncc([N+](=O)[O-])s2)n1-c1ccc2c(c1)OCCO2 + Cc1cc(Nc2cc(N3CCN(C)CC3)nc(/C=C/c3ccccc3)n2)n[nH]1 [ENMD2076] (first compound 0.2 µM, partner dose 0.04 µM)",103,97.4,89.4,96.2,105,98.1,,,122
"C[C@@H]1CCN(C(=O)CC#N)C[C@@H]1N(C)c1ncnc2[nH]ccc12 + O=C(O)C(=O)Nc1sc2c(c1C(=O)O)CCNC2 [TCS401] (first compound 1 µM, partner dose 1.66667 µM)",104,97.6,102,91.7,93.7,97,83,108,96.5
"O=C(Nc1cccc(Cl)c1)Nc1ncc(CCNc2ncnc3ccsc23)s1 + c1cc(-c2cnn3cc(-c4ccc(OCCN5CCCCC5)cc4)cnc23)ccn1 [Dorsomorphin] (first compound 0.0008 µM, partner dose 0.4 µM)",98.8,94.7,99,85.2,96.2,99.4,91.5,91.1,86.8
"O=C(Nc1cccc(Cl)c1)Nc1ncc(CCNc2ncnc3ccsc23)s1 + CN(NC(=O)CC(=O)NN(C)C(=S)c1ccccc1)C(=S)c1ccccc1 [STA4783] (first compound 0.0008 µM, partner dose 0.006 µM)",,96.9,95.3,96.8,80.1,101,78.3,85.1,90
